PMC4098744, “Systematic family‐wide analysis of sodium bicarbonate cotransporter NBCn1/SLC4A7 interactions with PDZ scaffold proteins” (Physiological Reports, 2014)
No constants are given. Whether binding was seen depends on the method and setting. For part of these data: In cells and extracts the contact can be indirect. Some entries that bind do so weakly or less than the wild type. Where a sequence is shown, tags or fusion partners need not be part of it.

Amino acid sequences for entries named in this document (tags omitted). Residues count along the entry.
UniProt Q96RT1, residues 1321-1410: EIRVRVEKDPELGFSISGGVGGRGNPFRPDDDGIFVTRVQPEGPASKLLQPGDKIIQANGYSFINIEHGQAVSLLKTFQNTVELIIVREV
UniProt Q15599, residues 150-230: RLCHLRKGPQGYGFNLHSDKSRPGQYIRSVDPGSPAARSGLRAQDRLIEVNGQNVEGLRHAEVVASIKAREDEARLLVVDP

Assays:
NHERF‐1 (PDZ domain 1) = biological target: T1, NHERF‐1 (PDZ domain 1) (UniProt O14745); assay: peptide or protein array; PDZ filter overlay: 96 Class I PDZ domains spotted on a nylon membrane; overlaid with 100 nmol/L GST/NBCn1 (or GST only) in blot buffer (50 mmol/L NaCl, 2% dry milk, 0.1% Tween 20, 10 mmol/L HEPES; pH 7.4) for 1 h at room temperature; detected with HRP-conjugated anti-GST antibody; done three times; both purified
T1 sequence: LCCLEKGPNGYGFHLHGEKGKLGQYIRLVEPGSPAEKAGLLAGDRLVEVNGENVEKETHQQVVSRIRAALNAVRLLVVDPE

[1] = biological target: T2, syntrophin α1 (PDZ domain on the array) (UniProt Q13424); assay: as above
T2 sequence: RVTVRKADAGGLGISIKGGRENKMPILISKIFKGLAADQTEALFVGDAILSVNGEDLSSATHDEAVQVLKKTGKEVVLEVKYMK

MUPP1 (PDZ domain 7) = biological target: T3, MUPP1 (PDZ domain 7) (UniProt O75970); assay: as above
T3 sequence: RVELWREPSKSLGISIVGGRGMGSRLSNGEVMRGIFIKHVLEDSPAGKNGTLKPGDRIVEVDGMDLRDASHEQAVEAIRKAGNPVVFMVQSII

[2] = biological target: T4, syntrophin γ2 (PDZ domain on the array) (UniProt Q9NY99); assay: as above
T4 sequence: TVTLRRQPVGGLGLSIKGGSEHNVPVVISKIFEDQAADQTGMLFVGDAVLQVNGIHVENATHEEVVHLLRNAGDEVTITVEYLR

[3] = biological target: T5, syntrophin β2 (PDZ domain on the array) (UniProt Q13425); assay: as above
T5 sequence: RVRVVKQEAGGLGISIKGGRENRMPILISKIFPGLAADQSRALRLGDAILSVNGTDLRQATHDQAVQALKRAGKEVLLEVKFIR

PDZK1 (PDZ domain 1) = biological target: T6, PDZK1 (PDZ domain 1) (UniProt Q5T2W1); assay: as above
T6 sequence: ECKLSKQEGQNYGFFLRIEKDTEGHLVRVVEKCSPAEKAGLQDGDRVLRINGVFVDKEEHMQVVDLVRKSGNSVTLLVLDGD

[4] = biological target: T7, MALS‐1 (PDZ domain on the array) (UniProt O14910); assay: as above
T7 sequence: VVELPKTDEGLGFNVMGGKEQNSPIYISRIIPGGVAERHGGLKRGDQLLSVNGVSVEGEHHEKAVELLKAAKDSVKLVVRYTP

[5] = biological target: ERBIN (PDZ domain on the array) (UniProt Q96RT1); assay: as above
NHERF‐2 (PDZ domain 2) = NHERF‐2 (PDZ domain 2) (UniProt Q15599); assay: as above
[6] = biological target: T8, GST/NBCn1 fusion protein containing the C‐terminal 131 amino acids of rat NBCn1 (rat) (UniProt Q9R1N3); assay: pull-down; GST/NBCn1 (C-terminal 131 amino acids) on Glutathione-Sepharose beads incubated with membrane and cytosolic lysates of Xenopus oocytes expressing syntrophin γ2, 4°C, 4 h, PBS with 0.5% Nonidet P-40; blot with syntrophin γ2 antibody; only the target purified
T8 sequence: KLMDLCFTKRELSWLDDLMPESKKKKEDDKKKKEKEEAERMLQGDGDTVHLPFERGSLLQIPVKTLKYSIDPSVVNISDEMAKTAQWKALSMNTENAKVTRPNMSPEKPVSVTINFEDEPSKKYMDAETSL

GST/Syn‐ΔPDZ (human) = biological target: T9, GST/Syn‐ΔPDZ (human) (UniProt Q9NY99); assay: pull-down; GST/syntrophin γ2 constructs on Glutathione-Sepharose beads incubated with lysates of Xenopus oocytes expressing rat NBCn1, 4°C, 4 h, PBS with 0.5% Nonidet P-40; blot with NBCn1 antibody; only the target purified
T9 sequence: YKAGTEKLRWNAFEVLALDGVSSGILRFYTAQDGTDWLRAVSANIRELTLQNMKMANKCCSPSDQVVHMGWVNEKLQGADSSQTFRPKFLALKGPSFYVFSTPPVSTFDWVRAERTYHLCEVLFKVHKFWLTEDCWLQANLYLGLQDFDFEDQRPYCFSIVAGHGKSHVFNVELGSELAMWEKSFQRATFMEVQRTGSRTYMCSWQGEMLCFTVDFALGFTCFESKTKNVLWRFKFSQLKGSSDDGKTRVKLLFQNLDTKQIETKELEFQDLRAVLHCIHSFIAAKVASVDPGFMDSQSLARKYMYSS

GST/Syn‐PDZ (human) = biological target: T10, GST/Syn‐PDZ (human) (UniProt Q9NY99); assay: as above
T10 sequence: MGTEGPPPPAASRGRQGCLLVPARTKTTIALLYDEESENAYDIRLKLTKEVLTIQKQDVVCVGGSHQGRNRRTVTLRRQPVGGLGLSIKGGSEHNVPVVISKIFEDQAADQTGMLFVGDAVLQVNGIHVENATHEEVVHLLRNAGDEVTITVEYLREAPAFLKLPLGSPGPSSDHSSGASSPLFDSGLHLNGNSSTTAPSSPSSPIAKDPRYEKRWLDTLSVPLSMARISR

B1: GST/NBCn1 fusion protein containing the C‐terminal 26 amino acids of rat NBCn1 (domain or fragment, UniProt Q9R1N3-2 1229-1254, looked up)
chain: PEKPVSVTINFEDEPSKKYMDAETSL
notes: NBCn1 (SLC4A7), rat, the C-terminal 26 amino acids; also called C‐terminal domain of NBCn1 fused to GST; source: prepared as described previously (Lee et al. 2012)
B1 was tested, and the binding (NHERF‐1 (PDZ domain 1)) was “binds”, the binding [1] was “binds” and the binding (MUPP1 (PDZ domain 7)) was “binds”. For the same binder, the binding [2] was “binds”, the binding [3] was “binds” and the binding (PDZK1 (PDZ domain 1)) was “binds”. The binding [4] was “binds weakly”, the binding [5] was “binds” and the binding (NHERF‐2 (PDZ domain 2)) was “binds”.

B2: syntrophin γ2 expressed in Xenopus oocytes (protein, UniProt Q9NY99 1-539)
chain: MGTEGPPPPAASRGRQGCLLVPARTKTTIALLYDEESENAYDIRLKLTKEVLTIQKQDVVCVGGSHQGRNRRTVTLRRQPVGGLGLSIKGGSEHNVPVVISKIFEDQAADQTGMLFVGDAVLQVNGIHVENATHEEVVHLLRNAGDEVTITVEYLREAPAFLKLPLGSPGPSSDHSSGASSPLFDSGLHLNGNSSTTAPSSPSSPIAKDPRYEKRWLDTLSVPLSMARISRYKAGTEKLRWNAFEVLALDGVSSGILRFYTAQDGTDWLRAVSANIRELTLQNMKMANKCCSPSDQVVHMGWVNEKLQGADSSQTFRPKFLALKGPSFYVFSTPPVSTFDWVRAERTYHLCEVLFKVHKFWLTEDCWLQANLYLGLQDFDFEDQRPYCFSIVAGHGKSHVFNVELGSELAMWEKSFQRATFMEVQRTGSRTYMCSWQGEMLCFTVDFALGFTCFESKTKNVLWRFKFSQLKGSSDDGKTRVKLLFQNLDTKQIETKELEFQDLRAVLHCIHSFIAAKVASVDPGFMDSQSLARKYMYSS
B2 was tested, and the binding [6] was “binds”.

B3: rat NBCn1 expressed in Xenopus oocytes (protein, UniProt Q9R1N3-2 1-1254)
chain: MEADGAGEQMRPLLTRGPDEEAVVDLGKTSSTVNTKFEKEELESHRAVYVGVHVPFSKESRRRHRHRGHKHHHRRRKDKDSDKEDGRESPSYDTPSQRVQFILGTEDDDEEHIPHDLFTEMDELCYRDGEEYEWKETARWLKFEEDVEDGGDRWSKPYVATLSLHSLFELRSCILNGTVMLDMRASTLDEIADMVLDNMIASGQLDDSIRENVREALLKRHHHQNEKRFTSRIPLVRSFADIGKKHSDPHLLERNGEGLSASRHSLRTGLSASNLSLRGESPLSLLLSHLLPSSRAGTPAGSRCTTPVPTPQNSPPSSPSLSRLTSRSSQQTQPQAPEVLVSPDRDDIPRVVIHPPEEDIEALKGQEQKNEENTDFTPGILASPQSAPGNLDSSKSGEVKGNGSGGSRENSTVDFSKVDMNFMRKIPTGAEASNVLVGEVDFLERPIIAFVRLAPAVLLSGLTEVPVPTRFLFLLLGPAGKAPQYHEIGRSIATLMTDEIFHDVAYKAKDRNDLLSGIDEFLDQVTVLPPGEWDPSIRIEPPKSVPSQEKRKIPAFPNGSAPVSADPPKEADHHAGPELQRTGRLFGGLILDIKRKAPFFLSDFKDALSLQCLASILFLYCACMSPVITFGGLLGEATEGRISAIESLFGASLTGIAYSLFAGQPLTILGSTGPVLVFEKILFKFCRDYHLSYLSLRTSIGLWTSFLCIVLVATDASSLVCYITRFTEEAFAALICIIFIYEALEKLFHLGEIYAFNMHNNLDALTSYTCVCAEPSNPSNETVELWERKNVTAASISWANLTVSECKTFHGMFVGSACGPHGPYVPDVLFWCVVLFFTTFFLSSFLKQFKTKRYFPTKVRSTISDFAVFLTIVIMVAIDYLVGIPSPKLHVPEKFEPTDPSRGWIISPLGDNPWWTLLIAAVPALLCTILIFMDQQITAVIINRKEHKLKKGAGYHLDLLMVAVMLGVCSIMGLPWFVAATVLSISHVNSLKVESECSAPGEQPKFLGIREQRVTGLMIFILMGLSVFMTSVLKFIPMPVLYGVFLYMGVSSLKGIQFFDRIKLFGMPAKHQPDLIYLRYVPLWKVHVFTVVQLTCLVLLWVIKASAAAVVFPMMVLALVFVRKLMDLCFTKRELSWLDDLMPESKKKKEDDKKKKEKEEAERMLQGDGDTVHLPFERGSLLQIPVKTLKYSIDPSVVNISDEMAKTAQWKALSMNTENAKVTRPNMSPEKPVSVTINFEDEPSKKYMDAETSL
B3 was tested, and the binding (GST/Syn‐ΔPDZ (human)) was “no binding” and the binding (GST/Syn‐PDZ (human)) was “binds”.
